Source: PubChem BioAssay (NCI)
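The compound was tested at five concentrations on cells cultured in 96-well plates, with a 48-hour exposure period. GI50 is the concentration that inhibits growth by half.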 The source holds more than one record for some entries. The list is limited to them. There may be further records. For some assays here: A record mostly stands for its own series of concentrations, which the source does not state; some values may only mark the edge of a range.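 TGI denotes the concentration required for complete inhibition of growth.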 For some assays here: Values given together are repeats in other runs, samples, wells, individuals or studies. Marks in square brackets tell the records apart. Letters count within one entry.

Key:
Assay in all cases: NCI-60 cell line screen, 48 h
786-0 renal = system: 786-0 renal
ACHN renal = system: ACHN renal
BT-549 breast = system: BT-549 breast
CCRF-CEM leukemia = system: CCRF-CEM leukemia
EKVX NSCLC = system: EKVX NSCLC
HCT-116 colon = system: HCT-116 colon
HOP-62 NSCLC = system: HOP-62 NSCLC
HOP-92 NSCLC = system: HOP-92 NSCLC
M14 melanoma = system: M14 melanoma
MALME-3M melanoma = system: MALME-3M melanoma
MCF7 breast = system: MCF7 breast
NCI-H226 lung = system: NCI-H226 lung
NCI-H522 lung = system: NCI-H522 lung
NCI/ADR-RES ovarian = system: NCI/ADR-RES ovarian
OVCAR-4 ovarian = system: OVCAR-4 ovarian
OVCAR-5 ovarian = system: OVCAR-5 ovarian
OVCAR-8 ovarian = system: OVCAR-8 ovarian
RPMI-8226 leukemia = system: RPMI-8226 leukemia
SF-539 CNS = system: SF-539 CNS
SK-OV-3 ovarian = system: SK-OV-3 ovarian
SR leukemia = system: SR leukemia
LXFL 529 NSCLC = system: LXFL 529 NSCLC
SF-295 CNS = system: SF-295 CNS
SK-MEL-5 melanoma = system: SK-MEL-5 melanoma
SNB-19 CNS = system: SNB-19 CNS
SNB-78 CNS = system: SNB-78 CNS
HL-60(TB) leukemia = system: HL-60(TB) leukemia
NCI-H23 lung = system: NCI-H23 lung
SK-MEL-28 melanoma = system: SK-MEL-28 melanoma
UACC-62 melanoma = system: UACC-62 melanoma
MOLT-4 leukemia = system: MOLT-4 leukemia
SN12C renal = system: SN12C renal

## c1ccc(C(=NNc2nc3ccccc3o2)c2ccccn2)nc1
786-0 renal
  TGI: 123 nM [sample A] and 3.25 µM [sample B]
ACHN renal
  TGI: 1.73 µM [sample A] and > 34.3 µM [sample B]
BT-549 breast
  TGI: 3.98 µM [sample A] and 41.4 µM [sample B]
CCRF-CEM leukemia
  TGI: 62.9 nM [sample A] and > 100 µM [sample B]
EKVX NSCLC
  TGI: < 29.9 nM [sample A] and > 35.9 µM [sample B]
HCT-116 colon
  TGI: 212 nM [sample A] and 16.6 µM [sample B]
HOP-62 NSCLC
  TGI: 286 nM [sample A] and > 35.8 µM [sample B]
HOP-92 NSCLC
  TGI: 68 nM [sample A] and 23.7 µM [sample B]
M14 melanoma
  TGI: 225 nM [sample A] and 2.52 µM [sample B]
MALME-3M melanoma
  TGI: 229 nM [sample A] and 5.6 µM [sample B]
MCF7 breast
  TGI: 43.4 nM [sample A] and 28 µM [sample B]
NCI-H226 lung
  TGI: 186 nM [sample A] and 2.88 µM [sample B]
NCI-H522 lung
  TGI: 1.4 µM [sample A] and > 64 µM [sample B]
NCI/ADR-RES ovarian
  TGI: 63.8 nM [sample A] and > 27.7 µM [sample B]
OVCAR-4 ovarian
  TGI: 78.6 nM [sample A] and 8.09 µM [sample B]
OVCAR-5 ovarian
  TGI: 611 nM [sample A] and > 53.6 µM [sample B]
OVCAR-8 ovarian
  TGI: 920 nM [sample A] and > 100 µM [sample B]
RPMI-8226 leukemia
  TGI: 178 nM [sample A] and 28.3 µM [sample B]
SF-539 CNS
  TGI: 348 nM [sample A] and 6.45 µM [sample B]
SK-OV-3 ovarian
  TGI: 156 nM [sample A] and 12.5 µM [sample B]
SR leukemia
  TGI: 301 nM [sample A] and > 37.5 µM [sample B]

## COc1cc2c(c(OC)c1OC)-c1ccc(SC)c(=O)cc1[C@@H](NC(=O)c1ccc(OC(C)=O)cc1)CC2
LXFL 529 NSCLC
  TGI: 92.1 nM and 35.7 µM
M14 melanoma
  TGI: 71.9 nM and 31.5 µM
MALME-3M melanoma
  TGI: 82.6 nM and 64.3 µM
SF-295 CNS
  TGI: 57.3 nM and 66.2 µM
SK-MEL-5 melanoma
  TGI: 54.1 nM and 14.7 µM
SNB-19 CNS
  TGI: 51.4 nM and > 100 µM
SNB-78 CNS
  TGI: 43.3 nM and > 100 µM

## COC1/C=C\C=C(/C)C(=O)Nc2cc3nc4ccc(Br)cc4oc-3c(c2=O)CC(C)CC(OC)C(O)C(C)/C=C(\C)C1OC(N)=O (stereo unspecified)
HL-60(TB) leukemia
  TGI: 1.92 nM and 1.31 µM
NCI-H23 lung
  GI50: 1.44 nM [1 test] and 52.8 nM [mean of 3 tests]
  TGI: 6.28 nM [1 test] and 11.4 µM [mean of 3 tests]
SK-MEL-28 melanoma
  TGI: 2.96 nM and 14.8 µM
UACC-62 melanoma
  TGI: 6.03 nM and 7.91 µM

## COc1ccc(/C=C\c2cc(OC)c(OC)c(OC)c2)cc1OC(=O)C(N)CCC(=O)O (stereo unspecified)
BT-549 breast
  GI50: 0.136 nM [1 test] and 48.7 nM [mean of 2 tests]
MALME-3M melanoma
  TGI: 60.6 nM and > 54.8 µM
MOLT-4 leukemia
  TGI: 9.78 nM, 31.5 nM, 35 µM
NCI-H23 lung
  GI50: 2.33 nM [1 test] and 0.209 nM [mean of 2 tests]
OVCAR-8 ovarian
  TGI: 61 µM [1 test] and 29.2 nM [mean of 3 tests]
RPMI-8226 leukemia
  TGI: 75 nM and 35.8 µM
SN12C renal
  GI50: 6.58 nM [1 test] and 0.566 nM [mean of 3 tests]
SR leukemia
  TGI: 6.34 nM, 9.4 nM, > 100 µM
